Assay results from patent US5877019A, “Animal 2-5A-dependent RNases and encoding sequences therefor” (Cleveland Clinic Foundation, priority 1996, dated 1999).

What was measured:
[1] = test system: murine 2-5A-dependent RNase; test: UV covalent crosslinking of 32P-2-5A probe in presence of unlabeled oligonucleotide competitors; type: binding; settings: probe 2.4 nM; both truncated recombinant (ZB1) and naturally occurring L cell protein
Protocol: FIG. 2A is a specific affinity of truncated murine 2-5A-dependent RNase for 2-5A. UV covalent crosslinking of the ^32 P-2-5A probe (lanes 1-7) to protein is performed after translation reactions in wheat germ extract (5 μl) with murine 2-5A-dependent RNase mRNA (from clone ZB1) (lanes 1-3) or without added RNA (lane 4) or in extract of interferon treated mouse L cells (100 μg of protein) (lanes 5-7). Reactions are without added competitor (lanes 1, 4, and 5) or in the presence of either trimer core. […] Lanes 8 and 9 are produced by incubating the wheat germ extract with ^35 S-methionine in the absence or presence of 2-5A-dependent RNase mRNA, respectively.
Autoradiograms of the dried SDS/10% polyacrylamide gels are shown. Concentrations of the oligonucleotide competitors are indicated. I is inosine.
The synthesis of the 2-5A probe, p(A2'p)2 (br^8 A2'p)2 A[32P]Cp, and its crosslinking to 2-5A-dependent RNase is performed exactly as described. See Nolan-Sorden, N. L. et al., Anal. Biochem., 184:298-304 (1990). Briefly, the 2-5A probe, about 0.7 to 2.5 nM at […], is incubated for about one hour on ice with cell extract prepared as described, Silverman, R. H. and Krause, D., I.R.L. Press, Oxford. England, pp. 149-193 (1987), in the absence or presence of unlabeled oligonucleotide competitors. […]

[2] = test system: human 2-5A-dependent RNase; settings: purified enzyme, poly(rU) substrate
[3] = test system: 2-5A-dependent RNase; settings: relative to the 5'-phosphorylated 2-5A species; cited from earlier work

Substance | concentration of competitor that prevents 2-5A probe binding [1] [µM] | activation of 2-5A-dependent RNase (in words) ([2]; listed as ppp5'A2'p5'A) | loss/decrease of 2-5A-dependent RNase binding [3] | activation of 2-5A-dependent RNase (in words) [2]
p3 A2'pA | > 10 | lack of activation ability | – | –
pppA(3'p5'A)2 | – | – | 10,000 fold | without activity

Read-outs that look alike come from different tables or passages of the source.
